The antibiotic and cytotoxicity screens of Wong et al. (2023)
Some of the results follow.

Legend:
HSkMC = human skeletal muscle cells; assay: cytotoxicity call (relative viability < 0.9); conditions: 10 µM
HepG2 = assay: cytotoxicity call (relative viability < 0.9); conditions: 10 µM
S. aureus RN4220 = assay: growth inhibition call (relative growth <= 0.2); conditions: 50 µM

SMILES | cytotoxicity call (HSkMC) | cytotoxicity call (HepG2) | growth inhibition call (S. aureus RN4220)
CN(C)CCCNC(=O)C[C@H]1C=C[C@@H](NS(=O)(=O)c2ccccc2)[C@@H](CO)O1 | inactive | inactive | inactive
C[C@H]1CN([C@@H](C)CO)C(=O)c2cc(C#CC3CCCCC3)cnc2O[C@H]1CN(C)C(=O)Cc1ccccn1 | inactive | inactive | inactive
CC(C)NC(=O)[C@@]1(c2ccc([N+](=O)[O-])cc2)CC(=O)N(CC23CC4CC(CC(C4)C2)C3)[C@@H]1c1ccc(CO)cc1I | inactive | active | inactive
COc1ccc(S(=O)(=O)N(C)C[C@H]2OCCCC[C@H](C)Oc3ccc(NC(=O)Nc4ccc5c(c4)OCO5)cc3C(=O)N([C@H](C)CO)C[C@H]2C)cc1 | inactive | inactive | inactive
Cn1cnc(S(=O)(=O)N2C[C@@H](O)COC[C@@H]3O[C@@H](CC(=O)NC4CCCC4)CC[C@H]32)c1 | inactive | inactive | inactive
C[C@H]1CN([C@@H](C)CO)C(=O)c2cccc(NC(=O)c3ccc(-c4nccs4)cc3)c2O[C@H]1CN(C)Cc1ccc(Cl)c(Cl)c1 | inactive | inactive | inactive
CC(=O)Nc1c(I)cc(I)c(C(=O)O)c1I | inactive | inactive | inactive
COc1ccc(NC(=O)Nc2ccc3c(c2)C(=O)N([C@@H](C)CO)C[C@@H](C)[C@H](CN(C)C(=O)Nc2ccc4c(c2)OCO4)OCCCC[C@@H](C)O3)cc1 | inactive | inactive | inactive
C[C@@H]1CN([C@@H](C)CO)C(=O)c2cc(NC(=O)Nc3ccc4c(c3)OCO4)ccc2O[C@@H](C)CCCCO[C@@H]1CN(C)S(=O)(=O)c1cccs1 | inactive | inactive | inactive
C[C@@H]1CN([C@H](C)CO)C(=O)c2cccc(NC(=O)C3CCOCC3)c2O[C@@H]1CN(C)Cc1ccc(-c2ccccc2)cc1 | inactive | inactive | inactive
CC(C)NC(=O)Nc1ccc2c(c1)C(=O)N([C@H](C)CO)C[C@H](C)[C@@H](CN(C)C(=O)Nc1ccc(F)cc1)OCCCC[C@@H](C)O2 | inactive | inactive | inactive
NCC[C@@H]1CC[C@@H](NC(=O)NC2CCCCC2)[C@H](CO)O1 | inactive | inactive | inactive
COC(=O)N1CCC[C@H](C(=O)O)C1 | inactive | inactive | inactive
C[C@@H]1CN([C@H](C)CO)C(=O)Cc2cc(NS(=O)(=O)c3cccs3)ccc2O[C@@H]1CN(C)Cc1ccncc1 | inactive | inactive | inactive
CO[C@H]1C[C@@H](O[C@@H]2/C(C)=C/C[C@@H]3C[C@@H](C[C@]4(CC[C@H](C)[C@@H](C5CCCCC5)O4)O3)OC(=O)[C@@H]3C=C(C)/C(=N/O)[C@H]4OC/C(=C\C=C\[C@@H]2C)[C@]43O)O[C@@H](C)[C@@H]1O | inactive | inactive | inactive
Cc1noc(C)c1NC(=O)N[C@H]1C=C[C@H](CC(=O)NCCCN(C)C)O[C@@H]1CO | inactive | inactive | inactive
O=C(C1CC1)N1CCCN(C(=O)C2CC2)CC1 | inactive | inactive | inactive
C[C@@H]1CCCCO[C@@H](CN(C)Cc2ccc(C(=O)O)cc2)[C@H](C)CN([C@@H](C)CO)C(=O)c2cc(NC(=O)Cc3ccccc3)ccc2O1 | inactive | inactive | inactive
c1ccc2c(c1)ccc1cc3c(ccc4ccccc43)cc12 | inactive | inactive | inactive
C[C@H]1CN([C@@H](C)CO)C(=O)c2cc(C#CCN(C)C)cnc2O[C@@H]1CN(C)Cc1ccc2c(c1)OCO2 | inactive | inactive | inactive
O=C(C[C@H]1C[C@@H]2c3cc(NC(=O)C4CCOCC4)ccc3O[C@@H]2[C@@H](CO)O1)NCc1cc(F)ccc1F | inactive | inactive | inactive
C[C@@H](CO)N1CC[C@H](CN(C)Cc2ccc(Oc3ccccc3)cc2)Oc2c(NC(=O)c3ccncc3)cccc2C1=O | inactive | inactive | inactive

SMILES | cytotoxicity call (HSkMC) | cytotoxicity call (HepG2) | growth inhibition call (S. aureus RN4220)
C[C@H]1CN([C@@H](C)CO)C(=O)c2cc(/C=C/c3ccccc3)cnc2O[C@H]1CN(C)C(=O)C1CCOCC1 | inactive | inactive | inactive
COCC(=O)Nc1ccc2c(c1)C(=O)N(C)C[C@@H](OC)[C@H](C)CN(Cc1cccc(F)c1)[C@@H](C)CO2 | inactive | inactive | inactive
C[C@@H]1CN([C@H](C)CO)C(=O)c2cc(NS(=O)(=O)c3ccc(F)cc3)ccc2O[C@H]1CN(C)Cc1ccc(Cl)c(Cl)c1 | active | inactive | inactive
C[C@@H]1CCCCO[C@H](CN(C)C(=O)Cc2ccccc2)[C@H](C)CN([C@H](C)CO)C(=O)c2cc(NC(=O)c3ccccc3)ccc2O1 | inactive | inactive | inactive
O=C(Nc1cc(Cl)ccc1Cl)c1cc(Cl)ccc1NS(=O)(=O)c1ccc(Cl)c([N+](=O)[O-])c1 | inactive | active | active
C[C@H](CO)N1C[C@H](C)[C@@H](CN(C)C(=O)Nc2ccc(C(F)(F)F)cc2)Oc2ccc(NC(=O)CCCCCC(=O)Nc3ccccc3N)cc2CC1=O | inactive | inactive | inactive
C[C@H]1CN([C@@H](C)CO)S(=O)(=O)c2ccc(Br)cc2O[C@H]1CN(C)C(=O)c1cccc(F)c1 | inactive | inactive | inactive
COc1ccc(S(=O)(=O)N(C)C[C@H]2Oc3ccc(N(C)C)cc3CC(=O)N([C@@H](C)CO)C[C@@H]2C)cc1 | inactive | inactive | inactive
O[C@@H](COc1cccc2ncccc12)CN1CCN([C@@H]2c3ccccc3[C@@H]3[C@H](c4ccccc42)C3(F)F)CC1 | active | inactive | inactive
C[C@@H]1CN([C@@H](C)CO)C(=O)c2cccc(NS(=O)(=O)c3ccc(Cl)cc3)c2O[C@@H]1CN(C)Cc1ccc(C(=O)Nc2ccccc2N)cc1 | inactive | active | inactive
C[C@H]1CN([C@@H](C)CO)C(=O)Cc2cc(NC(=O)Nc3cccc4ccccc34)ccc2O[C@H]1CN(C)C(=O)Nc1cccc2ccccc12 | inactive | inactive | inactive
O=C(C[C@@H]1C[C@@H]2c3cc(NS(=O)(=O)c4ccc(F)cc4)ccc3O[C@@H]2[C@H](CO)O1)NCCc1ccccc1 | inactive | inactive | inactive
C[C@@H]1CCCCO[C@H](CN(C)Cc2ccc(Cl)c(Cl)c2)[C@@H](C)CN([C@@H](C)CO)C(=O)c2cc(NS(=O)(=O)c3ccc(Cl)cc3)ccc2O1 | active | active | inactive
Cn1cnc(S(=O)(=O)N2C[C@@H](O)COC[C@H]3O[C@@H](CC(=O)NC4CCCC4)CC[C@@H]32)c1 | inactive | inactive | inactive
CC(C)NC(=O)N(C)C[C@H]1Oc2c(NS(=O)(=O)c3cn(C)cn3)cccc2C(=O)N([C@@H](C)CO)C[C@@H]1C | inactive | inactive | inactive
O=C(C[C@@H]1CC[C@H]2[C@@H](COC[C@H](O)CN2C(=O)Nc2ccc3c(c2)OCO3)O1)N1CCN(c2ccccc2)CC1 | inactive | inactive | inactive
CC(C)CC#Cc1ccc2c(c1)O[C@@H](CN(C)C(=O)C1CCOCC1)[C@H](C)CN([C@@H](C)CO)S2(=O)=O | inactive | inactive | inactive
CC(=O)N1CCC(C(=O)O)CC1 | inactive | inactive | inactive
C[C@H]1CCCCO[C@H](CN(C)CC2CCCCC2)[C@@H](C)CN([C@@H](C)CO)C(=O)c2cc(NC(=O)Nc3ccc(F)cc3)ccc2O1 | inactive | active | inactive
O=C(Nc1cccc(C(F)(F)F)c1)c1ccc2ccccc2c1 | inactive | active | inactive
Cc1cc(C(=O)Nc2cccc3c2O[C@H](CN(C)C(=O)Nc2c(C)noc2C)[C@@H](C)CN([C@H](C)CO)C3=O)n(C)n1 | inactive | inactive | inactive
C[C@@H]1CCCCO[C@@H](CN(C)C(=O)CCC(F)(F)F)[C@H](C)CN([C@H](C)CO)C(=O)c2cc(NS(=O)(=O)c3ccc(F)cc3)ccc2O1 | inactive | inactive | inactive
